# In PubChem BioAssay AID1345082 (National Center for Advancing Translational Sciences (NCATS), 2018):
# Values joined by “and” are separate entries in the source; they are usually repeats but may differ in a detail not shown here. Equal values may be shown once. Screen size: about 94,000 compounds; about 4,000 (4.3%) were called active. Inconclusive results, whose numbers are uncertain, are shown with a selection of clear calls. Calls follow the shape of the dose curve; as a rule, active = well fitted inhibition curve with a large enough effect; inconclusive = small, poorly fitted or top-dose-only effect; inactive = no such curve, though single readings can be large or run the other way. Where the call is inconclusive, the potency comes from a doubtful curve fit.
# Experiment: Cytotoxic Profiling in NIH 3T3 Cell Line of Diverse Libraries Using Quantitative High-Throughput Screening; also: nearly all actives have a fitted effect of over 55% in size
# Settings: NIH 3T3 viability, CellTiter-Glo ATP luminescence, 48-72 h; activity change, negative = cytotoxicity: at 96.7 µM (top of the series) unless noted; series mostly up to 96.7 µM
# Procedure, shortened: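 Viability of NIH 3T3 cells after 48 or 72 hr compound treatment at 37 °C was assessed by CellTiter-Glo, with luminescence imaged following a 10 min room-temperature step.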
# % is scaled to controls: 0 for no effect and ±100 for the full control effect; potency is read from the fitted curve at half-maximal effect; tags tell the direction and shape of the fitted curve.
Structure (SMILES),"activity change, negative = cytotoxicity",Potency
O=C(C1CCCN1C(=O)C1CCCC1)N1CCC(c2nc3ccncc3[nH]2)CC1 (centres undefined),inactive: -12.1%,
Cn1cnc(S(=O)(=O)N2CCCC(C(=O)NC3CCCCC3)CCNC(=O)CC2)c1 (centres undefined),inactive: -17.5%,
O=C(Nc1ccccc1F)N1CCN(c2ccc3nnc(-c4ccccc4)n3n2)CC1,,"inconclusive: 50.1 µM [inhibitor, partial curve, poor fit]"
COc1ccc(CN(C)C2CCCN(CCc3ccccc3)C2)cc1F (centres undefined),,"inconclusive: 79.4 µM [inhibitor, partial curve, poor fit]"
O=C(CCCC1C(=O)Nc2ccccc21)NCCc1noc(-c2ccccc2)n1 (centres undefined),,"inconclusive: 79.4 µM [inhibitor, partial curve, poor fit]"
O=C(Cn1c(=O)oc2ccccc21)NC1CCCN(CCCc2ccccc2)C1 (centres undefined),,"inconclusive: 50.1 µM [inhibitor, partial curve, poor fit]"
O=C(NC1CCCCC1)c1nc2sccn2c1-c1ccc(C(F)(F)F)cc1,,active: 39.8 µM
CCCOc1ccc(Cl)cc1CNC(=O)C1CCN(CC(N)=O)CC1,inactive: 0.943%,
COc1ccc(C(=O)Nc2ccc(-c3nnc4n3CCCC4)cc2)cc1,inactive: -25.9%,
O=C(NCc1cccnc1)c1cc(-c2ccccc2F)cc2c1OCCN2Cc1cccnc1,,"inconclusive: 50.1 µM [inhibitor, partial curve, poor fit]"
O=C(c1ccco1)N1CCC2(CC1)NCCc1c2[nH]c2ccccc12,inactive: -6.14%,
COc1cccc(CNC(=O)c2cc3n(n2)CC(c2ccc(Cl)cc2)OC3)c1 (centres undefined),,"inconclusive: 50.1 µM [inhibitor, partial curve, poor fit]"
COc1cccc(CC(=O)N2CC[C@@H](NC(=O)c3ccncc3)[C@H](O)C2)c1,inactive: -20.4%,
COCCOC1CN(C2CCN(C(=O)c3cnccn3)CC2)C12CCCCC2 (centres undefined),inactive: 1.75%,
Fc1cccc(CN2CCNc3cc(Nc4cccnc4)ncc3C2)c1,,active: 31.6 µM
COc1ccccc1-c1ccc2c(C(=O)NCc3ccc4c(c3)OCO4)nn(C)c2n1,,"inconclusive: 50.1 µM [inhibitor, partial curve, poor fit]"
CC(C)CCC(C)Nc1ncnc2c1CN(C1CCCNCC1)C(=O)CN2C (centres undefined),,"inconclusive: 50.1 µM [inhibitor, single point]"
OC(c1ccccc1)c1nc(Nc2ccc(Cl)cc2F)n[nH]1 (centres undefined),,"inconclusive: 56.2 µM [inhibitor, partial curve, poor fit]"
COc1ccc(CNC(=O)C2CCN(Cc3ccccc3-c3ccccc3F)CC2)cc1,,"inconclusive: 44.7 µM [inhibitor, partial curve, poor fit]"
COC(=O)CNC(=O)c1cn2cc(-c3cccc(OC)c3)sc2n1,,"inconclusive: 70.8 µM [inhibitor, partial curve, poor fit]"
COc1ccc(-c2ccc(C(=O)N(C)C)c(Cl)c2)nn1,,"inconclusive: 7.08 µM [inhibitor, full curve, poor fit]"
Cn1ccc(C(=O)N2CC(COc3ccccc3)C3(C2)CN(c2ccccc2)C3)n1 (centres undefined),,active: 100 µM

Structure (SMILES),"activity change, negative = cytotoxicity",Potency
Cn1nc(C(=O)NC2CC(c3cc(N4CCCC4)ncn3)C2)ccc1=O (centres undefined),inactive: -22.9%,
O=C(NCc1cccc(Cl)c1)c1nc2sccn2c1-c1cccc(C(F)(F)F)c1,,"inconclusive: 39.8 µM [inhibitor, partial curve]"
CC(C)C(=O)Nc1cc(C2CC2)nn1-c1ccccc1,,"inconclusive: 112 µM [inhibitor, partial curve]"
N#CC1CCN(C(=O)c2nc(-c3cccnc3)c3ccccn23)CC1,,"inconclusive: 89.1 µM [inhibitor, single point]"
Cc1nn(-c2ccccc2)c2c1C(C1CC1)N(C1CCN(Cc3c(F)cccc3F)CC1)C2=O (centres undefined),inactive: -32%,
COc1ccc(OCC2(C)COc3ccc(C(=O)N(C)CCN(C)C)cc3N2)cc1 (centres undefined),,"inconclusive: 89.1 µM [inhibitor, partial curve, poor fit]"
Cc1ncoc1C(=O)N1CCC(C2CCN(Cc3cccc(F)c3F)CC2)C1 (centres undefined),,"inconclusive: 56.2 µM [inhibitor, partial curve, poor fit]"
COc1cccc(-c2cc3c(=O)n(CCNC(=O)c4cccc5[nH]ccc45)ccn3n2)c1,,"inconclusive: 14.1 µM [inhibitor, full curve, poor fit]"
CC(C)CNC(=O)c1cc(-c2cccc(C(F)(F)F)c2)nc2c1cnn2C,inactive: -9.19%,
Cc1ccc(Nc2ccnc(N3CCCC3C(=O)N3CCC(Cc4ccccc4)CC3)n2)cc1 (centres undefined),,active: 20 µM
CSc1ccc(CNC(=O)C2CCN(c3cc(C(F)(F)F)ncn3)CC2)cc1,,"inconclusive: 35.5 µM [inhibitor, partial curve]"
O=C(NCCCc1ccccc1)c1nc2cccnc2n(C2CC2)c1=O,inactive: -21.5%,
O=C(Nc1ccccc1)c1ccc2c(c1)n(Cc1cccc(F)c1)c(=O)c1ccnn12,,"inconclusive: 10 µM [inhibitor, full curve, poor fit]"
N#Cc1cccnc1-c1cccc(C(=O)NCCNC(=O)c2ccc(C(F)(F)F)cc2)c1,,"inconclusive: 50.1 µM [inhibitor, partial curve, poor fit]"
Cc1cn2nc(C(=O)NCc3ccccc3)cc2c(N(C)Cc2ccccc2)n1,,"inconclusive: 44.7 µM [inhibitor, partial curve, poor fit]"
O=C(C1CCCN(c2nccc(Nc3ccccc3F)n2)C1)N1CCCC1 (centres undefined),,active: 31.6 µM
CNC(=O)[C@H]1C[C@]2(CCCCN(CCO)C2=O)N(C(=O)c2cccc(C#N)c2)[C@H]1c1ccco1,,"inconclusive: 56.2 µM [inhibitor, single point]"
COCc1nc(C2CCCN(C(=O)C3CCCC3)C2)no1 (centres undefined),inactive: 3.21%,
Cc1nc(-c2ccc(F)cc2)n(Cc2cccc(Cl)c2)c(=O)c1CCO,,"inconclusive: 50.1 µM [inhibitor, partial curve, poor fit]"
O=C(NC1CCN(Cc2cccc(-c3cccs3)c2)CC1)c1cccc(Cl)c1,,"inconclusive: 17.8 µM [inhibitor, full curve, poor fit]"
O=C(c1ccccn1)N1CC(F)(F)C[C@H]1c1nc(-c2ccncc2)no1,,"inconclusive: 44.7 µM [inhibitor, partial curve, poor fit]"
CC(C)NC(=O)C1CCCN(Cc2cccc(-c3cccs3)c2)C1 (centres undefined),,"inconclusive: 44.7 µM [inhibitor, partial curve, poor fit]"

Structure (SMILES),"activity change, negative = cytotoxicity",Potency
COc1ccccc1-c1ccc(CN2CCCCC2C(=O)NCc2cccc(F)c2)cc1 (centres undefined),,"inconclusive: 22.4 µM [inhibitor, full curve] and inconclusive: 28.2 µM [inhibitor, full curve, poor fit] and inconclusive: 28.2 µM [inhibitor, full curve]"
c1ccc(OCc2nc(C3CCCNC3)no2)cc1 (centres undefined),inactive: -13%,
CCOC(=O)C1CCCN(C(=O)Cc2ccc(N(Cc3ccc(C)cc3)C(=O)c3ccco3)cc2)C1 (centres undefined),,"inconclusive: 50.1 µM [inhibitor, partial curve, poor fit]"
CC(C)C(=O)N[C@H]1C[C@@H](Cc2cc(CN3CCOCC3)on2)C1(C)C,inactive: -11.2% [at 174 µM],
Cc1cccc(OCC(=O)N2[C@@H]3CC[C@H]2CC(NC(=O)c2cnc(C)cn2)C3)c1 (some centres undefined),inactive: -12%,
CS(=O)(=O)N1CCC(Cc2ccc(C(=O)NCCc3ccccc3)cc2)CC1,,"inconclusive: 31.6 µM [inhibitor, partial curve]"
NC(=O)NCc1cn(C2CCN(Cc3cc4ccccc4s3)CC2)nn1,inactive: -25.4%,
COc1cccc(OCc2nc3c(n2Cc2ccccc2)C(=O)N(Cc2cccc(Cl)c2)CCN3)c1,,"inconclusive: 28.2 µM [inhibitor, full curve, poor fit]"
O=C(COc1ccccc1)N[C@H]1CO[C@H]2[C@@H]1OC[C@@H]2Nc1nccc(-c2ccco2)n1,,active: 89.1 µM
CCC(C)Oc1ccc(CNC(=O)c2cn(CCN)nn2)cc1 (centres undefined),,"inconclusive: 50.1 µM [inhibitor, partial curve, poor fit]"
Cc1noc(C)c1C(=O)NC1CCCc2c1[nH]c1ccccc21 (centres undefined),,"inconclusive: 5.01 µM [inhibitor, partial curve, poor fit]"
CN(Cc1cccnc1)C1CN(C(=O)c2cnn(C)c2)C1,inactive: 4.47%,
CC(C)(C)c1ccc(-c2cc(C[C@H]3CNCC[C@H]3CC(=O)N3CCN(Cc4ccccc4)CC3)no2)cc1,,"inconclusive: 22.4 µM [inhibitor, full curve, poor fit]"
Cc1cccc(C(=O)NC2CCN(c3cc(-c4ccccc4)[nH]n3)CC2)c1,,"inconclusive: 44.7 µM [inhibitor, partial curve, poor fit]"
O=C(C1CN(c2cccc(Cl)c2)C(=O)N1)N1CCCC1 (centres undefined),,"inconclusive: 112 µM [inhibitor, single point]"
COc1ccc2cc(C3CN(Cc4cc5n(n4)CCNC5)CCO3)ccc2c1 (centres undefined),,"inconclusive: 56.2 µM [inhibitor, partial curve, poor fit]"
O=C(Nc1cc(-c2cccnc2)nn1-c1ccccc1)c1cccc(Br)c1,,"inconclusive: 44.7 µM [inhibitor, partial curve, poor fit]"
COc1ccc(-c2cc(-c3ccncc3)c3cncn3c2)cc1OC,,active: 25.1 µM
CCOc1ccc2c(n1)CCN(C(=O)Nc1cccc(CC)c1)C2,,"inconclusive: 44.7 µM [inhibitor, partial curve, poor fit]"
CSc1ccc(-c2ccccc2C=O)cc1,,"inconclusive: 112 µM [inhibitor, partial curve, poor fit]"
